These results are taken from PubChem BioAssay AID1346428 (National Center for Advancing Translational Sciences (NCATS), 2018).

Where “and” joins values, the source holds several entries; their conditions need not be identical. Equal values may be shown once. About 1,200 (2.5%) of roughly 48,000 compounds were called active. Roughly 2% stayed inconclusive and do not appear here.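 How the source made its calls: active means activation of at least 60% and not above a set upper limit (about 1 call in 100 departs from these limits); inconclusive means activation of 40% to 60%, or above that upper limit; inactive means activation under 40%.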 Some of the results follow.

Chain of UniProt O75388 (O75388 whole entry, looked up): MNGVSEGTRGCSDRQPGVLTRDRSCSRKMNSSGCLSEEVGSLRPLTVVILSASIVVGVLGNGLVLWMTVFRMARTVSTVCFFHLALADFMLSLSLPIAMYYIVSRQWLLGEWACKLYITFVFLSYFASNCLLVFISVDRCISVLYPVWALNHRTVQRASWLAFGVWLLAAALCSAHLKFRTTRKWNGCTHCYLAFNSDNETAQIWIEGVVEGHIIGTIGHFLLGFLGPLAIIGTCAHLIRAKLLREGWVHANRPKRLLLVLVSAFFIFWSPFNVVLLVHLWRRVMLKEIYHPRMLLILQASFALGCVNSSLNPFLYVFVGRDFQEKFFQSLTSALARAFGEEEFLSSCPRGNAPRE

The assay has as its target Probable G-protein coupled receptor 32 (Homo sapiens) (UniProt O75388). Description: qHTS for Agonists of Human Resolvin D1 Receptor DRV1. Further: 0% is about no effect. The settings on record: CHO-K1 GPR32 beta-arrestin PathHunter luminescence, 90 min; at 76.9 µM; hits give high values; zero percent set by DMSO-only wells. A digest of the protocol:
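Step 1: seed CHO-K1 GPR32 beta-arrestin cells, 2,500/well, overnight at 37 °C. Step 2: add compounds, 90 min at 37 °C. Step 3: detection reagent, 1 h ambient, then luminescence.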
A general note: qHTS replaces the single test concentration by a dilution series.
Regarding `COc1ccc(NC(=O)Cn2c(=O)n(-c3ccc(C)c(C)c3)c(=O)c3c4c(sc32)CCCCC4)cc1Cl`, the activation was inactive: -7.68%.
To `CCc1ccc(NC(=O)CSc2cn(CC(=O)N3CCOCC3)c3ccccc23)cc1` belongs inactive: -2.19%; to `CCCCNC(=O)CSC1=Nc2ccccc2C2=NC(CCC(=O)NCc3ccccc3OC)C(=O)N12` (centres undefined), inactive: 0.969%; to `Cn1c(C(=O)N2CCCC(C(=O)N3CCN(c4ccccc4)CC3)C2)cc2sccc21` (centres undefined), inactive: -5.54%.
To `COc1ccc(CCNC(=O)c2cc(=O)c3c(C)cc(C)cc3o2)cc1OC` belongs inactive: 38.8%.
Then `CC(CC(=O)NCc1ccc(Cl)cc1Cl)CC1=NS(=O)(=O)c2ccccc2N1` (centres undefined), with active: 66.4%; and `Cc1ccc(/C=C/c2nc3ccccc3n2S(=O)(=O)c2cccc(Cl)c2)cc1`, with inactive: 40%; and `O=C(CCn1c(=O)c2cccn2c2cccnc21)NCc1ccc(Cl)cc1`, with inactive: -15.4%.
`COC(=O)c1ccc(NC(=O)C(=O)NCCc2sc3nc(-c4ccc(OC)cc4)nn3c2C)cc1`: the activation is inactive: -4.6%.
With `COc1ccccc1NC(=O)C1=C(C)Nc2c(C(=O)Nc3cccc(C)c3)cnn2C1c1ccccc1C` (centres undefined), the activation was inactive: -16.4%.
Regarding `COc1cc2c(cc1OC)n(CC(=O)Nc1ccccc1)c(=O)n1nc(-c3ccccc3)nc21`, the activation is inactive: 11.8%.
Then `CCOC(=O)c1ccc(NC(=O)Cn2cc(C(=O)c3cccs3)c3ccccc32)cc1`, with inactive: -17.3%; and `Cc1cccc(OC(=O)c2nc(SCc3ccccc3F)ncc2Cl)c1`, with inactive: -18.5%; and `Cc1nc2ccn(Cc3cccs3)c(=O)c2cc1C(=O)NCc1ccc(Cl)cc1`, with inactive: -24.5%.
Then `Cc1ccc(Nc2nc3c(S(=O)(=O)c4ccccc4)nnn3c3ccc(Cl)cc23)c(C)c1`, with inactive: 9.61%; and `COc1ccc(CNC(=O)c2cc3c(=O)[nH]c4ccccc4c3n2C)c(OC)c1`, with inactive: 9.58%; and `Cc1ccc2c(c1)N(C(=O)N1CCC(C(=O)NCc3cccs3)CC1)CC(C)O2` (centres undefined), with inactive: -0.322%.
With `Cc1nn2c(=O)cc(COC(=O)C(c3ccccc3)c3ccccc3)nc2s1`, the activation was inactive: -8.47%.
To `CC(NC(=O)CN1C(=O)COc2ccc(Cl)cc21)c1ccccc1` (centres undefined) belongs inactive: -1.57%; to `COc1ccc(CCNC(=O)CCCn2c(=O)c3ccccc3n(CC(=O)Nc3ccc(C)cc3Cl)c2=O)cc1OC`, inactive: 39.7%; to `COc1ccc(Cl)cc1NC(=O)NCc1noc2ccccc12`, inactive: -12.6%.
Then `Cc1cccc(N(CC(=O)NCCSc2ccc(Cl)cc2)S(C)(=O)=O)c1C`, with active: 103%.
To `Cc1ccc(-c2c(C(=O)N(C)Cc3ccccc3)oc(=O)c3ccccc23)cc1` belongs inactive: -7.12%; to `Cc1ccc(NC(=O)C2CCN(C(=O)c3cnn(-c4ccccc4)c3-n3cccc3)CC2)cc1C`, inactive: 0.748%; to `CC(C)c1ccc(NC(=O)CCNS(=O)(=O)c2ccc3c(c2)oc(=O)n3C)cc1`, inactive: 4.18%.
In the case of `C=C(C)Cn1c(SCC(=O)Nc2cccc(C)c2)nc2sc3c(c2c1=O)CCCC3`, the activation is inactive: -0.104%.
Then `O=C(CCS(=O)(=O)c1nc(-c2ccc3c(c2)OCO3)cc(C(F)(F)F)n1)Nc1ccc(F)cc1F`, with inactive: -35.1%; and `COC(=O)c1nnn(-c2ccc(Cl)cc2)c1C(=O)OC`, with inactive: -2.94%.
To `Cc1ccc(-n2ncc(C(=O)N3CCN(C(=O)c4ccco4)CC3)c2C2CCN(C(=O)OC(C)(C)C)CC2)cc1` belongs inactive: -6.99%; to `CCS(=O)(=O)c1ncc(Cl)c(C(=O)Nc2c(C(=O)c3ccc(C)cc3)oc3ccccc23)n1`, inactive: 14.9%.
Turning to `O=C(NCC(c1cccnc1)N1CCc2ccccc2C1)C(=O)Nc1ccc(F)cc1F` (centres undefined), the activation is inactive: -16%.
As to `Cc1cccc(-c2nc(C)c(CCNC(=O)c3cccs3)s2)c1`, the activation is inactive: 37.8%.
Then `O=C(CN1CCCN(Cc2cccc(F)c2)S1(=O)=O)Nc1ccc2c(c1)OCCO2`, with inactive: 23.1%; and `COc1cccc(-c2cn3c(n2)sc2cc(C(=O)NCCC4=CCCCC4)ccc23)c1`, with inactive: -16%; and `O=C(CSc1oc(-c2ccc(F)cc2)nc1S(=O)(=O)c1ccc(Cl)cc1)c1ccccc1`, with inactive: -22%.
To `Cc1cccc(CCNC(=O)c2nn(C)c3c2CSc2ccccc2-3)c1` belongs inactive: 8.66%; to `O=C(c1ccc2c(c1)N(Cc1cccc(Cl)c1)C(=O)c1ccccc1S2(=O)=O)N1CCCCCC1`, inactive: -26.6%.
To `COc1ccc(-c2nc(CSc3nnc(C)n4c3cc3sccc34)c(C)o2)cc1` belongs inactive: 1.06%; to `COc1ccc(-c2ccc(=O)n(CC(=O)Nc3ccccc3C(F)(F)F)n2)cc1`, inactive: 27.1%; to `CCS(=O)(=O)N1CCc2cc(C(=O)Nc3cccc(NC(C)=O)c3)ccc21`, inactive: 25.2%.
As to `Oc1ccccc1-c1nc2ccc(Cl)cn2c1Nc1ccc2c(c1)OCCO2`, the activation is inactive: 20.6%.
To `O=C(Nc1c(C(=O)N2CCN(c3ccccc3F)CC2)oc2ccccc12)c1ccc(Br)o1` belongs inactive: -34.2%.
To `S=C(S)N1CCCC1` belongs inactive: -38%; to `Cc1ccc(C2c3[nH]c4ccccc4c3CCN2C(=O)CSc2ccccc2)cc1` (centres undefined), inactive: -33.3%; to `CC(Oc1ccc(Br)cc1)C(=O)N(Cc1nc(-c2ccccc2)no1)C(C)C` (centres undefined), inactive: 5.31%.
Take `O=C(NCCCN1CCN(c2ccccc2)CC1)c1ccc2nc(CCc3ccccc3)oc2c1`: the activation was inactive: -11.2%.
To `CCc1nn2c(=O)cc(COC(=O)c3ccccc3NC(=O)c3ccc(C(C)(C)C)cc3)nc2s1` belongs inactive: -10.2%; to `Cc1ccccc1OCC(=O)Nc1nnc(S(=O)(=O)N2CCCCCC2)s1`, inactive: -0.54%.
Then `Cn1c(=O)oc2cc(S(=O)(=O)N3CCCC(C(=O)N4CCN(c5ccc(F)cc5)CC4)C3)ccc21` (centres undefined), with inactive: 11%.
To `CSc1cccc(NC(=O)C2CCCN(S(=O)(=O)c3ccc4c(c3)CCCN4C(C)=O)C2)c1` (centres undefined) belongs inactive: -11.1%.
As to `Cc1ccc(-n2c(-c3cccc(C)c3)nc3c(cnn3-c3ccccc3)c2=O)cc1`, the activation was inactive: -22.8%.
To `CCCCC(CC)CNC(=O)CC(C)OC(=O)CCC(=O)O` (centres undefined) belongs inactive: -0.962%; to `CCCN(CCC)CCCNC(=O)c1sc2nc3n(c(=O)c2c1C)CCC3`, inactive: -2.66%; to `Oc1cccc(-c2nc(-c3cccs3)c(-c3cccs3)[nH]2)c1`, inactive: -10.8%.
Then `CC(=O)CC(c1ccccc1)c1c(O)c2ccccc2oc1=O` (centres undefined), with inactive: -8.62%.
Take `Cc1ccccc1OCCSc1nnc(-c2ccc([N+](=O)[O-])cc2)o1`: the activation is inactive: 5.65%.
Then `O=C(NCC(c1ccc2c(c1)OCO2)N1CCOCC1)C(=O)Nc1ccc(Cl)cc1` (centres undefined), with inactive: -2.22%.
Then `COc1ccc(CNC(=O)CSCc2ccc(C)cc2)c(OC)c1`, with inactive: -18%; and `O=C(c1ccc2c(c1)N(Cc1cccc(Cl)c1)C(=O)c1ccccc1S2(=O)=O)N1CCN(Cc2ccccc2)CC1`, with inactive: -26%.
To `CCc1cc2c(cc3c(=O)n(CC(=O)NC(C)C)nc(CC)n32)s1` belongs inactive: -14.5%; to `COc1ccccc1NC(=O)c1cc2c(n(-c3ccc(C)cc3)c1=O)CC(C)(C)CC2=O`, inactive: -3.04%; to `CCC1CCCCN1CCCNC(=O)c1sc2nc(C)cc(C)c2c1-n1cccc1` (centres undefined), inactive: -20.5%.
On to `Cc1ccc(NS(=O)(=O)c2ccc(-c3cc(C)no3)cc2)c(C)c1`, for which the activation was inactive: -5.6%.
To `O=C1NS(=O)(=O)c2ccccc21` belongs inactive: -7.02%.
To `COc1ccc(CNC(=O)Cn2c(=O)n3nc(-c4cccc(F)c4)nc3c3ccccc32)cc1OC` belongs inactive: 18.8%; to `NS(=O)(=O)c1cc2c(cc1Cl)NC(C1CC3C=CC1C3)NS2(=O)=O` (centres undefined), inactive: 20.2% and inactive: -0.0339%.
To `O=C(Nc1ccc(F)cc1F)c1cc(CN2CCOCC2)on1` belongs inactive: 2.99%; to `CCc1cc(=O)oc2c(C)c3c(cc12)CN(CCc1ccccc1)CO3`, inactive: -34.7%; to `COc1ccc(OC)c(NS(=O)(=O)c2ccc3c(c2)CCCN3C(=O)C2CCC2)c1`, inactive: -18.5%.
`COc1ccc(CNC(=O)C2=Cc3cccc(OC)c3OC2)cc1OC`: the activation is inactive: -17.1%.
Then `Cc1ccc(S(=O)(=O)Nc2ccc3c(c2)CCCN3C(=O)c2cccs2)cc1C`, with inactive: -21.5%.
Consider `COc1cc(Br)c(C2CC(=O)Nc3cc4c(cc32)OCCO4)cc1OC` (centres undefined), for which the activation is inactive: 0.201%.
To `COc1cccc(C(c2sc3nc(-c4ccco4)nn3c2O)N2CCC3(CC2)OCCO3)c1` (centres undefined) belongs inactive: -5.27%; to `CCc1nn(CC(=O)NCCN(CC(C)C)CC(C)C)c(=O)c2cc3sc(C)cc3n12`, inactive: -8.49%; to `Cc1cccc(NC(=O)C(Cc2ccccc2)N2Cc3ccccc3C2=O)c1C` (centres undefined), inactive: -26.4%.
To `CCc1ccc(NC(=O)c2ccc(F)c(S(=O)(=O)N3CCc4ccccc4C3)c2)cc1` belongs inactive: -9.55%; to `CNS(=O)(=O)c1cn(CC(=O)Nc2ccc(C)cc2C)cc1S(=O)(=O)NC`, inactive: -1.36%.
Then `Cc1ccc(C2=Nc3ccccc3NC(c3ccncc3)=N2)cc1`, with inactive: 15.2%; and `CCOc1ccc(-c2nc3c(C#N)c[nH]n3c2NC2CCCC2)cc1`, with inactive: -35.2%; and `Cc1ccc(-c2cn3c(n2)sc2cc(C(=O)NCCCc4ccccc4)ccc23)cc1`, with inactive: -15.5%.
As for `COc1ccc(NS(=O)(=O)c2ccc(NC(=O)N3CCCC3)cc2)cc1`, the activation is inactive: 36.9%.
Consider `CCOC(=O)c1cc(-c2ccc(C)cc2)nn1Cc1ccccc1`, for which the activation is inactive: -11.5%.
Then `CCc1ccccc1NC(=O)C1CCCN(S(=O)(=O)c2cccc3nsnc23)C1` (centres undefined), with inactive: -0.383%; and `COc1ccc(CCNC(=O)CCc2c(C)nc3c(c(C)nn3-c3ccc(C)cc3)c2C)c(OC)c1`, with inactive: -0.584%.
